# According to PubChem BioAssay AID686979 (National Center for Advancing Translational Sciences (NCATS), 2013):
# Hit rate of the full screen: of about 420,000 compounds, about 50,000 (12%) were called active. The inconclusive results got no clear call from the source; some entries with a clear call stand among them for comparison. Calls follow the shape of the dose curve; as a rule, active = well fitted inhibition curve with a large enough effect; inconclusive = small, poorly fitted or top-dose-only effect; inactive = flat fitted curve, though single readings scatter. No potency is given beside an inconclusive call; the fits are too rough.
# Assay: qHTS for Inhibitors of human tyrosyl-DNA phosphodiesterase 1 (TDP1): qHTS in cells in presence of CPT; also: nearly all actives have a fitted effect of over 55% in size
# Details: chicken DT40 Tdp1-/-;hTDP1 cells + 20 nM CPT, ATP luminescence, 48 h; activity change, negative = growth inhibition: at 46.2 µM (top of the series)
# Procedure, shortened: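 Chicken DT40 Tdp1-/- cells complemented with human TDP1, 400 cells/well, exposed to compounds plus 20 nM camptothecin for at least 48 h at 37 C; viability read as ATP content by CellTiter-Glo luminescence.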
# % is scaled to controls: 0 for no effect and ±100 for the full control effect; potency is read from the fitted curve at half-maximal effect; tags tell the direction and shape of the fitted curve.
SMILES,Potency,"activity change, negative = growth inhibition"
CCn1c(=S)[nH]c2cc(S(=O)(=O)N3CCCCC3)ccc21,"inconclusive [inhibitor, single point]",
CC(CC(c1ccccc1)c1ccccc1)NC(C)(C)C (configuration not stated),"inconclusive [inhibitor, single point]",
O=C1NC2(CCCCCC2)C(=O)N1Cc1ccccc1Br,inactive,
Cc1ncsc1C(=O)N1CCCC(C(=O)c2ccc3ccccc3c2)C1 (configuration not stated),active: 23.1 µM,
O=C(NC1CCSc2ccccc21)c1ccc([N+](=O)[O-])cc1 (configuration not stated),"inconclusive [inhibitor, single point]",
C=COC(=O)CSc1snc(SCC(=O)OC)c1C#N,"inconclusive [inhibitor, single point]",
Cc1nn2c(-c3ccccc3)ccnc2c1Br,"inconclusive [inhibitor, single point]",
CCn1c(-c2cc(-c3ccc(OC(C)C)cc3)nc3ccccc23)n[nH]c1=S,"inconclusive [inhibitor, single point]",
O=C(Nc1cc(Cl)ccc1N1CCOCC1)c1ccc2c(c1)OCO2,inactive,
CC(=O)Nc1cc(C(=O)NCc2ccccc2)ccc1Sc1ccc(C)cc1,"inconclusive [inhibitor, single point]",
Cc1cc(C)c2[nH]c(=O)c(CN(Cc3cccs3)C(=S)NCc3ccco3)cc2c1,active: 13 µM,
CN1OC[C@@H]2CN(C(=O)c3ccco3)[C@H](c3ccc(-c4ccc(C#N)cc4)cc3)C[C@@H]21,"inconclusive [inhibitor, single point]",
COc1ccc(N2CCN(CC(O)COc3ccccc3C(C)(C)C)CC2)cc1 (configuration not stated),"inconclusive [inhibitor, single point]",
CCCCn1nnnc1SCC(=O)NCc1ccccc1,inactive,
COc1ccc(N2CCN(CCNS(=O)(=O)c3ccc(C)cc3)CC2)cc1,"inconclusive [inhibitor, single point]",
O=C(Nc1ccc2c(c1)OCCO2)c1c[nH]c(=O)n(-c2ccc(F)c(Cl)c2)c1=O,inactive,
N#C/C(=C/c1ccccc1)C(=O)NCc1ccccc1,inactive,
CC(C)CCC(CCN1CCCC1)c1ccc2c(c1)OCO2 (configuration not stated),"inconclusive [inhibitor, single point]",
Cc1ccc(CNC(=O)C(C(C)C)N2Cc3ccccc3C2=O)cc1 (configuration not stated),"inconclusive [inhibitor, single point]",
COc1cccc(C2(O)CCN(C(=O)C(C)C)CC2)c1,inactive,
Cc1ccccc1-n1c(SCc2c(C)noc2C)nnc1-c1cccnc1,inactive,
[O-]/[N+](=C\c1ccncc1)c1ccccc1,active: 20.6 µM,
CN(C(=O)CSc1cn(CC(=O)N2CCCCCC2)c2ccccc12)c1ccccc1,"inconclusive [inhibitor, single point]",
COc1ccc(-c2cc(C(=O)NCCc3ccccc3)no2)cc1OC,inactive,

SMILES,Potency,"activity change, negative = growth inhibition"
O=C(CSc1nc2ccccc2[nH]1)NCCN1CCCCC1,inactive,
O=C(NC1CCCCC1)c1ccc(Cn2c(SCc3cccc(F)c3)nc3cccnc32)cc1,active: 20.6 µM,
O=C(CCN1C(=O)S/C(=C\c2ccccc2)C1=O)NC1CCS(=O)(=O)C1 (configuration not stated),,inconclusive: -34.4% [inhibitor]
CCOC(=O)C1CCN(c2nc(C)cc(C)c2C#N)CC1,inactive,
Cc1ccc(C)c(N2CCN(C(=O)c3cccc(-n4c(C)nc5cccnc54)c3)CC2)c1,active: 7.31 µM,
Cc1ccc(CC(=O)N(Cc2nc(-c3ccc(C)cc3)no2)C(C)C)cc1,"inconclusive [inhibitor, single point]",
CN(C)c1ccc(C=c2c3cc(O)ccc3n3c2cc(-c2ccccc2)[n+]3C)cc1,active: 7.31 µM,
Cc1cccc2cc(CN(CCCN3CCOCC3)Cc3nnnn3C(C)(C)C)c(=O)[nH]c12,inactive,
COc1ccc(C(=O)Nc2cccc(-c3csc(C)n3)c2)cc1S(=O)(=O)N1CCCC1,"inconclusive [inhibitor, single point]",
COc1ccc(C2C3=C(CCCC3=O)Nc3ccc4ncccc4c32)cc1OC (configuration not stated),inactive,
Cc1ccc(S(=O)(=O)Nc2cc(C(=O)N3CCOCC3)ccc2N2CCCCC2)cc1,"inconclusive [inhibitor, single point]",
CCOc1cc(/C=N/NC(=S)Nc2ccccc2C(F)(F)F)ccc1OCC(=O)N1CCOCC1,active: 5.8 µM,
CCOc1ccc(NC(=O)Cn2c(=O)n(CCc3ccccc3)c(=O)c3c4c(sc32)CN(C(C)=O)CC4)cc1,"inconclusive [inhibitor, single point]",
Cc1c(C(=O)Nc2ccc(S(=O)(=O)NCC3CCCO3)cc2)cccc1[N+](=O)[O-] (configuration not stated),"inconclusive [inhibitor, single point]",
C=CCNC(=S)N1CCC(Cc2ccccc2)CC1,"inconclusive [inhibitor, single point]",
COC(=O)c1ccc(NC(=O)C(=O)NCC2CCCO2)cc1 (configuration not stated),"inconclusive [inhibitor, partial curve]",
O=C(CN1C(=O)c2cccc3cccc1c23)N1CCN(Cc2ccc3c(c2)OCO3)CC1,"inconclusive [inhibitor, single point]",
O=C(CCCCCN1C(=O)c2cccc3cccc(c23)C1=O)NCc1cccnc1,active: 2.91 µM,
CS(=O)(=O)N(Cc1ccccc1)c1ccc(C(=O)NCc2ccccc2)cc1,"inconclusive [inhibitor, single point]",
O=C(Nc1ccn(-c2ccccc2)n1)c1ccc(S(=O)(=O)N2CCCCCC2)cc1,"inconclusive [inhibitor, single point]",
COc1ccccc1N(CC(=O)Nc1cccc(C(F)(F)F)c1)S(C)(=O)=O,inactive,
Cc1nn(CC(=O)NCCC2=CCCCC2)c(C)c1S(=O)(=O)N(C)C,"inconclusive [inhibitor, partial curve]",
Cc1cc(NCCCN)nc(-c2ccccc2O)n1,"inconclusive [inhibitor, single point]",
CC1CCc2nc(NC(=O)CSc3nc4ccccc4o3)sc2C1 (configuration not stated),"inconclusive [inhibitor, partial curve]",

SMILES,Potency,"activity change, negative = growth inhibition"
COc1cc(NC(=O)COc2ccc(-n3ccnc3)cc2)cc(OC)c1,"inconclusive [inhibitor, single point]",
CCc1ccc(-c2nc(CSCC(=O)NCCCN3CCCC3=O)c(C)o2)cc1,"inconclusive [inhibitor, partial curve]",
O=C(Nc1ccc(C(=O)N2CCOCC2)cc1)c1cc(-c2cccnc2)nc2ccc(Cl)cc12,active: 1.84 µM,
CCCCn1nnnc1C(c1ccccc1)N1CCN(C/C=C/c2ccccc2)CC1 (configuration not stated),"inconclusive [inhibitor, single point]",
CCOc1ccc(NC(=O)c2nn(C)c(C(=O)Nc3ccc(OCC)cc3)c2[N+](=O)[O-])cc1,inactive,
COc1ccc(-c2cc(C(=O)NCc3cccc(Cl)c3)[nH]n2)c(C)c1,"inconclusive [inhibitor, single point]",
OC1(c2ccc(Cl)c(C(F)(F)F)c2)CCN(CCCC(c2ccc(F)cc2)c2ccc(F)cc2)CC1,active: 2.66 µM,
Cc1ccc(NC(=O)CCC(=O)N/N=C/c2ccc(O)cc2O)cc1,active: 14.6 µM,
C[C@@H]1C[C@H]2[C@@H]3CCC4=CC(=O)C=C[C@]4(C)[C@@]3(F)[C@@H](O)C[C@]2(C)[C@@]1(O)C(=O)CO,"inconclusive [inhibitor, full curve, poor fit]",
CCn1c(CN2CCN(c3cccc(Cl)c3)CC2)nc2c1c(=O)[nH]c(=O)n2C,"inconclusive [inhibitor, partial curve]",
O=C(c1n[nH]c(=O)c2ccccc12)N1CCN(S(=O)(=O)c2ccccc2Cl)CC1,"inconclusive [inhibitor, single point]",
CC(=O)C1=C(C)N(Cc2ccco2)C(=O)C1(NC(=O)C1CCCCC1)C(F)(F)F (configuration not stated),"inconclusive [inhibitor, single point]",
COCCCNc1ncnc2c1c(-c1ccccc1)cn2-c1ccc(C)c(Cl)c1,active: 18.4 µM,
Cc1cc(N2CCCC2)ccc1/C=C1\NC(=S)N(C)C1=O,active: 4.61 µM,
Cc1cc2nn(-c3ccc(Cl)cc3)nc2cc1NC(=O)C(C)C,inactive,
Cc1ccc(Cn2c(N)nc3ccccc32)cc1,active: 18.4 µM,
CC(=O)Nc1ccc(SCC(=O)Nc2ccc3c(c2)OCCO3)cc1,inactive,
C=CCNC(=O)/C(C#N)=C/c1ccc2c(c1)OCCO2,inactive,
C/C(=N\NC(=O)c1ccccc1)c1ccc(C)c([N+](=O)[O-])c1,"inconclusive [inhibitor, partial curve]",
Cc1ccc(Cn2nnc3c(=O)[nH]c(C4CCN(S(=O)(=O)Cc5ccccc5)CC4)nc32)cc1,"inconclusive [inhibitor, single point]",
Cc1c(-n2cc(C(=O)O)c(=O)c3cc(F)c(N4CCCC4)c(F)c32)c(=O)n(-c2ccccc2)n1C,active: 16.4 µM,
Cn1cc(Br)c(C(=O)NC(=S)Nc2ccc(S(N)(=O)=O)cc2)n1,inactive,
COc1ccc(CNC(=O)c2cc3ccccn3n2)c(OC)c1,"inconclusive [inhibitor, single point]",
CCn1c(SCC(=O)c2ccccc2)nnc1-c1cccs1,inactive,
